Variants at the floor of the assay are shown more often than the library holds them.
B1: TPR 5TU (parent)
chain: GGAUCUUCUCGAUCUAACAAAAAAGACAAAUCUGCCACAAAGCUUGAGAGCAUCUUCGGAUGCAGAGGCGGCAGCCUUCGGUGGCGCGAUAGCGCCAACGUUCUCAACUAUGACACGCAAAACGCGUGCUCCGUUGAAUGGAGUUUAUCAUG

Variants of: B1
Assay: polymerase ribozyme fitness, log enrichment relative to wild type (log ratio); higher = more active; in vitro selection for triplet polymerase activity
Method in brief: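 Fitness is a logarithmic measure of how a genotype enriched relative to the wild type, with replicate averages weighted by inverse variance. The logarithm uses base 2, and enrichment came from Illumina sequencing of input and output libraries. Those libraries were PCR-built, transcribed mutants of each subunit of a heterodimeric triplet polymerase ribozyme, passed through one triplicate in vitro selection round that included frozen incubation at −7 °C, gel excision of extended constructs and streptavidin-bead capture. Genotypes were kept only if they had ≥10 input reads and ≥1 read per output.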

| Variant | polymerase ribozyme fitness (log ratio) |
| --- | --- |
| A39C A52C G84U C108U | ≤ -4.2 |
| A40C G70A | -2.97 |
| A40C C54G G92A A121U C132U U146A | ≤ -4.2 |
| A39G G58C A91U A97C | ≤ -4.2 |
| A39U A49C U61A C96A | ≤ -4.2 |
| A39G A49C C57A | ≤ -4.2 |
| C38U U55A C87G C108G G112U G133U C149A | ≤ -4.2 |
| A41C C99G | -0.603 |
| A39U A40C G42U G48A A60U U82G C85A U104A U127C | ≤ -4.2 |
| A39G U78G G112C G126U A147C | ≤ -4.2 |
| A41C G46U A47C C93U A107G A115U G143A | ≤ -4.2 |
| C38U U44C A49U G50A U77G C93U A121U U145A | ≤ -4.2 |
| A39U C99U C125G U134C A138G | ≤ -4.2 |
| C38U U45A C51G G81C U101C A106C A137G G143A U144C | ≤ -4.2 |
| A41C C63G G92U | -0.619 |
| A41C A49G C99G C116U | ≤ -4.2 |
| A40C A91U C96G | ≤ -4.2 |
| A39C G42A G68A A119G C123U A138G | ≤ -4.2 |
| A39U A52C C63G A121C | ≤ -4.2 |
| A39C A91U G94A G133C A142U U145A U148A | ≤ -4.2 |
| A39U U53A A91G A97G U111G | -4.05 |

| Variant | polymerase ribozyme fitness (log ratio) |
| --- | --- |
| A40C G71A | ≤ -4.2 |
| A39C G143U | -4.15 |
| A39U G71A C76A G80U C103G C149G | ≤ -4.2 |
| A41C C51A U61G G67U C76U C99A | ≤ -4.2 |
| A40U G68A C116A A137U | ≤ -4.2 |
| A40G C105U A115U A138G | ≤ -4.2 |
| A40G U53G U55A A66C G84U A89G C108U | ≤ -4.2 |
| A41C G80U C93A C95U G100C A122C A142G | ≤ -4.2 |
| A40C G46U A73G C75G C79U C96U A106G A137G | ≤ -4.2 |
| A41C A89U G92A U102G U148C | ≤ -4.2 |
| A39U G81A C99U U104C G117A | -3.48 |
| A39C A73U C87G C132A | ≤ -4.2 |
| A40C G94U C95G | -3.87 |
| A40G A41G C63U C76A G83C G124A | ≤ -4.2 |
| A40G A41G U53G C85A U127G C131U G143A | ≤ -4.2 |
| A39U C93A C105G A113U C114G | ≤ -4.2 |
| A41C G81U G86U U104C | -1.73 |
| A39G G42A A73G A106G G124A G126A G136U | ≤ -4.2 |
| A41C C54U A60U U135G | ≤ -4.2 |
| A40U C43G C72A C79A U101A | ≤ -4.2 |
| A40U C72G C76A | ≤ -4.2 |

| Variant | polymerase ribozyme fitness (log ratio) |
| --- | --- |
| C38U G71U G80A C85G | ≤ -4.2 |
| A39G G83A G117U U144C | ≤ -4.2 |
| A40G A115G A137G C149U | -4.02 |
| A39C G58C U90G C95G | ≤ -4.2 |
| A39G A64U U78A C96G A150U | ≤ -4.2 |
| A40C U90G U139A | ≤ -4.2 |
| A39G A41G A49G G83C U145A | -3.94 |
| A39C C93U G143U | ≤ -4.2 |
| A39C U56G A73G | -3.36 |
| A39U C51G U55G U61G C85U C99U | ≤ -4.2 |
| C38U U56A A147C | -0.21 |
| A40C G48A G58A C87U | -2.55 |
| A39G A49C C76G C99U C108G A110G U148C | ≤ -4.2 |
| A40C G92U G94A | 0.834 |
| A39U A49C A137G | ≤ -4.2 |
| A41C C95A | -0.7 |
| A41C C95U | -2.15 |
| A39U G48C C54U C85A | ≤ -4.2 |
| A40U U55G C95U C105G C116G | -3.94 |
| A40U A91U U102A U104C U139A | ≤ -4.2 |
| A39U G88C A115C G124A | ≤ -4.2 |

| Variant | polymerase ribozyme fitness (log ratio) |
| --- | --- |
| C38U U55G G84C A98U | -1 |
| A39G G88U | ≤ -4.2 |
| A39G G42A G48C A49C G83U C87G C96A A107U | ≤ -4.2 |
| A40C U53A | 0.24 |
| A41C G80C | -4.11 |
| A39C G84A | -3.26 |
| C38U G59A U77C | ≤ -4.2 |
| A40U A41G G42U U45A U53A A73G C87A G143U | ≤ -4.2 |
| A39U A47G C95U A110G | -3.7 |
| A39C G48U C85U C105U C118A | ≤ -4.2 |
| A39C C87G C96G C99G G136U A137C G140U G141C | ≤ -4.2 |
| A39C U45G A64U G65A | ≤ -4.2 |
| A39U G86A | -3.06 |
| A40U G74U | ≤ -4.2 |
| A40C A52C G83A | -2.55 |
| A40G G83U G100C | ≤ -4.2 |
| A39C U53A G86C C105A A119U | ≤ -4.2 |
| A41C G50A A52C C54U U56A C75U C87U U146G A150G | ≤ -4.2 |
| A40C C85A | -2.39 |
| A41C C43A A64U C72U A91U C105A A107U | ≤ -4.2 |

Reference: the RNAGym collection of RNA variant scans (doi:10.1073/pnas.2313332121)
